Paper PMC9513469
These are yes or no findings as the source states them, for the method shown. For part of these data: Binding seen in cells or lysates may run through a third protein. Some results given as binding are weak or reduced against the parent protein; the word gives no strength. For part of these data: Tags and fused reporters may be left off the sequences shown. Each block holds one substance with its values, some of them ahead of it.

Protein sequences, listed by entry. Tags and fused reporters are not part of them.
UniProt Q94BT6: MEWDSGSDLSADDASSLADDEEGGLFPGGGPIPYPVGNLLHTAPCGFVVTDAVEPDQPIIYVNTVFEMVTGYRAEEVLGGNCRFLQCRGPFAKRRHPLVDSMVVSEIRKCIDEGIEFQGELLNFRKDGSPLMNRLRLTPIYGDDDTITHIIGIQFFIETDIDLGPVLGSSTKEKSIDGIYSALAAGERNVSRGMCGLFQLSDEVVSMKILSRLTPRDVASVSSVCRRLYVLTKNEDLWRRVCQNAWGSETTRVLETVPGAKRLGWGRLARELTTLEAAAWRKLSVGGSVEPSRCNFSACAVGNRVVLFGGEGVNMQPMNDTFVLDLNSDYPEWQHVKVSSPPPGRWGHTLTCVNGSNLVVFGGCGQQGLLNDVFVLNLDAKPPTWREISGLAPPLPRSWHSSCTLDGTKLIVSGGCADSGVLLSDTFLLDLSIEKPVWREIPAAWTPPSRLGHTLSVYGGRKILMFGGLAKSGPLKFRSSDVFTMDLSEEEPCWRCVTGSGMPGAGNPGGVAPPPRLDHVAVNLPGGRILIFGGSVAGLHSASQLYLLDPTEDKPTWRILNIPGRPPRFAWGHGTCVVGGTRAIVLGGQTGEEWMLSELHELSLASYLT

Columns and labels:
[1] = target: T1, CHLH/ABAR (Mg-chelatase H subunit/putative ABA receptor), endogenous (Arabidopsis thaliana (endogenous in ZTL-ox plants)) (UniProt Q9FNB0); assay: co-IP; protein extracts of ZTL-ox plants immunoprecipitated with anti-CHLH antibody; ZTL-YFP detected with anti-GFP
T1 sequence: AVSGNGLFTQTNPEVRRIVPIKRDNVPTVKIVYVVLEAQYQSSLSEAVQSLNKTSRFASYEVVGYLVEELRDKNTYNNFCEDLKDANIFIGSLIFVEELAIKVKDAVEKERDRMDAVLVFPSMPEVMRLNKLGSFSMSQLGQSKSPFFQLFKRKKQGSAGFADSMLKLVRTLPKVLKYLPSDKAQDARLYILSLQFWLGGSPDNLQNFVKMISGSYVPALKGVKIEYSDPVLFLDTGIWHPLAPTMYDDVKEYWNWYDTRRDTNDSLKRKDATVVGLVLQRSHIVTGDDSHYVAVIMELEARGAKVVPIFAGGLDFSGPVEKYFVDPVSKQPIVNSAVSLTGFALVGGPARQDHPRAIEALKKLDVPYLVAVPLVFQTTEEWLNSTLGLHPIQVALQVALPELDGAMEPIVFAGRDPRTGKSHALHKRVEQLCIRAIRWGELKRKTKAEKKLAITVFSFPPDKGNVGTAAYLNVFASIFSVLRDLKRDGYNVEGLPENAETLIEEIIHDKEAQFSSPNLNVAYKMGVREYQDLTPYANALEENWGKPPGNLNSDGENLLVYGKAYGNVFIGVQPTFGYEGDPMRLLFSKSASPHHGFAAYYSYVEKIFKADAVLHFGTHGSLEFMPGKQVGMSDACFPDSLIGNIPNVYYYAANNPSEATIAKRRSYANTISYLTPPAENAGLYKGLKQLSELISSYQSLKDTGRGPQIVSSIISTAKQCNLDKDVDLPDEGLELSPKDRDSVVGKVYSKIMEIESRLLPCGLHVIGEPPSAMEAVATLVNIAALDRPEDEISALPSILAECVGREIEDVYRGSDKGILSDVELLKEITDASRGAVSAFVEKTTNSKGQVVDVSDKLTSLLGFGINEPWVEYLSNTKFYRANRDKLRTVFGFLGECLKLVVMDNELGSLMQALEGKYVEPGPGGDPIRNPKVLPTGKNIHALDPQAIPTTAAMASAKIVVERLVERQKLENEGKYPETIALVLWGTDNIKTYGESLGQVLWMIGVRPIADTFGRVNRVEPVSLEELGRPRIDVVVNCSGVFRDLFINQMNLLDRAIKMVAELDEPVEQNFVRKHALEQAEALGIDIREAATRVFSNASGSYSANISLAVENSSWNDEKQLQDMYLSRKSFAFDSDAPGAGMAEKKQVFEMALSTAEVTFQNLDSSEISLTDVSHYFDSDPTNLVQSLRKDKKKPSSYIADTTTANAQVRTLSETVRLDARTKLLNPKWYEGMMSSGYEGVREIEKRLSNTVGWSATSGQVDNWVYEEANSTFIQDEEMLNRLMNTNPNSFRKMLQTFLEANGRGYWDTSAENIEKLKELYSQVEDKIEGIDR

[2] = target: T2, middle fragment of CHLH (amino acids 348–1,038) fused to the GAL4 DNA binding domain (Arabidopsis thaliana) (UniProt Q9FNB0); assay: two-hybrid; Matchmaker Gal4 system; CHLH fragments in pGBKT7 and ZTL ORF in pGADT7 in yeast AH109; growth on Leu-Trp-His-Ade-deficient medium, 5-7 days at 30°C
T2 sequence: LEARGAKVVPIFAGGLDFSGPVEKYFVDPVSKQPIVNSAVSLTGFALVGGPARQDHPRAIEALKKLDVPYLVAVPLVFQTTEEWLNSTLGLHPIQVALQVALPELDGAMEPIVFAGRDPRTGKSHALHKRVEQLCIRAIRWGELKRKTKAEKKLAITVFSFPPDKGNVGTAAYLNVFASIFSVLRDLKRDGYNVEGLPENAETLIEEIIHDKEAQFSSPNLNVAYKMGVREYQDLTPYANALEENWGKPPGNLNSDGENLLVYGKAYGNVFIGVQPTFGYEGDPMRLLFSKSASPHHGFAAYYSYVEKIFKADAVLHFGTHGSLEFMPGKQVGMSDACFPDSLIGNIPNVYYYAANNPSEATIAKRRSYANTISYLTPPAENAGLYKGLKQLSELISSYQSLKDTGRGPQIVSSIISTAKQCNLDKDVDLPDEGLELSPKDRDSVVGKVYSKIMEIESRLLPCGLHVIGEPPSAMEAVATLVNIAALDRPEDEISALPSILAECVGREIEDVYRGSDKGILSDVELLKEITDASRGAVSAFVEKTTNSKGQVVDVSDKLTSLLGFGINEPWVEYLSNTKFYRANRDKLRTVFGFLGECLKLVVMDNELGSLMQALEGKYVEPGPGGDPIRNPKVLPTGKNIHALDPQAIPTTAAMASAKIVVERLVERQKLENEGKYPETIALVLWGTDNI

[3] = target: T3, N-terminus of CHLH (amino acids 1–691) fused to the GAL4 DNA binding domain (Arabidopsis thaliana) (UniProt Q9FNB0); assay: as above
T3 sequence: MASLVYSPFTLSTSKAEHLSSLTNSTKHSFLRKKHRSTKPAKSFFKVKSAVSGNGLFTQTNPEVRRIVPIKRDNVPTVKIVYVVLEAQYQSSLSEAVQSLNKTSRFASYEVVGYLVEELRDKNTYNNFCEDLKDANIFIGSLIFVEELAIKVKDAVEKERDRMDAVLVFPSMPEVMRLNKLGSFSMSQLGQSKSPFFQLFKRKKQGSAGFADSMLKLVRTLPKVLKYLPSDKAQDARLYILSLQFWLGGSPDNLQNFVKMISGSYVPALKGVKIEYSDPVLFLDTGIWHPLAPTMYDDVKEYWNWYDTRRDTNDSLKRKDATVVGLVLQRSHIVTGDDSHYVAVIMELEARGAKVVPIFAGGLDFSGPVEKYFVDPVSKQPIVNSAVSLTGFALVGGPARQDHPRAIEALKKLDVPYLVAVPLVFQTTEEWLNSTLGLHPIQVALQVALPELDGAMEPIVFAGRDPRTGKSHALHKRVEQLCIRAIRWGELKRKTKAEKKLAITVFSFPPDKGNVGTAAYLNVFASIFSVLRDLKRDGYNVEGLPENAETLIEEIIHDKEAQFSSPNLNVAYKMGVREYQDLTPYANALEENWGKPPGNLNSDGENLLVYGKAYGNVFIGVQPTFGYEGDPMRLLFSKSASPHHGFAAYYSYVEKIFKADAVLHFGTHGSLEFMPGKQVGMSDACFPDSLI

[4] = target: T4, C-terminus of CHLH (amino acids 692–1,381) fused to the GAL4 DNA binding domain (Arabidopsis thaliana) (UniProt Q9FNB0); assay: as above
T4 sequence: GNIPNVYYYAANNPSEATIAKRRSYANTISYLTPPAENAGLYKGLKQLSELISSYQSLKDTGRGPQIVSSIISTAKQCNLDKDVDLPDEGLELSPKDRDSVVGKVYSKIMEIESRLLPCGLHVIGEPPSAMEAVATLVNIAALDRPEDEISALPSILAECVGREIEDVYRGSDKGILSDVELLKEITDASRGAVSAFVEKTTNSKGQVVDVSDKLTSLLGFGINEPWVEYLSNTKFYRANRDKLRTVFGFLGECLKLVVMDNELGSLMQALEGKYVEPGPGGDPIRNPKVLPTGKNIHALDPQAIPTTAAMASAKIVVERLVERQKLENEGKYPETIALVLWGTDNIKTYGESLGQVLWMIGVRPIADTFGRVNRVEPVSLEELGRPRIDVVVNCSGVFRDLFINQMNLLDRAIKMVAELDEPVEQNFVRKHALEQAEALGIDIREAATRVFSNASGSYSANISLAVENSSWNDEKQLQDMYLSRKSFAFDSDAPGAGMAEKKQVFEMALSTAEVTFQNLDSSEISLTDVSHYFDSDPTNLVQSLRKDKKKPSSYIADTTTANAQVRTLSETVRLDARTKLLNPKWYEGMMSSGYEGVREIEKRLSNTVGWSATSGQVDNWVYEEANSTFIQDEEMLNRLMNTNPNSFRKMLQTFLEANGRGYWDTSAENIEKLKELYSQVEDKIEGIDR

[5] = target: T5, full-length CHLH with a GST tag at the N-terminus (Arabidopsis thaliana) (UniProt Q9FNB0); assay: pull-down; GST-tagged full-length CHLH and MBP-tagged full-length ZTL, purified recombinant proteins, in vitro; who was held is not told; both purified
T5 sequence: T1 sequence

[6] = target: T6, CHLH fused with nLUC (Arabidopsis thaliana) (UniProt Q9FNB0); assay: split reporter; firefly luciferase complementation imaging (LCI) in Nicotiana benthamiana leaves; CHLH-nLUC and ZTL-cLUC; with or without 100 μM (±) ABA for 4 h before imaging
T6 sequence: T1 sequence

binding [1]: binds
Substance: ZTL with a YFP tag at the C-terminus, in ZTL-overexpressing plants (ZTL-ox) (from UniProt Q94BT6 1-609)

binding [2]: binds | binding [3]: no binding | binding [4]: binds
Substance: ZEITLUPE (ZTL) ORF in pGADT7 (from UniProt Q94BT6 1-609)

binding [5]: binds
Substance: full-length ZTL with an MBP tag at the N-terminus (from UniProt Q94BT6 1-609)

binding [6]: binds
Substance: ZTL fused with cLUC (from UniProt Q94BT6 1-609)
